Test results taken from PubChem BioAssay AID588689 (Southern Research Specialized Biocontainment Screening …, 2011).
The campaign covered roughly 340,000 compounds. About 1,000 (0.29%) were called active. This list was built around the results that the source calls inconclusive (neither active nor inactive); the mix of calls is not that of the screen. Rule as the data show it: inconclusive = inhibition above about 29% without an active follow-up result; inactive = below that.

molecular target: Genome polyprotein (Dengue virus type 2 (strain 16681-PDK53)) (UniProt P29991); experiment: Dengue-2 NS5 methyltransferase inhibitors, primary screen, biochemical, confirmation dose response (AID 588689); conditions: Dengue-2 NS5 methyltransferase capping enzyme assay, at 25 µM, hits give high values

| Structure (SMILES) | inhibition |
| --- | --- |
| C=CCN1C(=O)/C(=C2/Sc3ccccc3N2CC)SC1=S | inconclusive: 55.2% |
| COc1ccccc1Nc1nc2ccc(C)cc2cc1C#N | inconclusive: 33.8% |
| CC1CCCN(c2nc3ccccc3nc2C(C#N)S(=O)(=O)c2ccccc2)C1 (stereo not given) | inconclusive: 69.4% |
| COc1ccc(C=Nc2cccnc2N)cc1 | inconclusive: 34.9% |
| Cn1c(O)c(C=Nc2ccc(N3CCOCC3)cc2)c(=O)n(C)c1=S | inconclusive: 109% |
| COc1cccc(/C=C2\Oc3cc(OCC(=O)N4CCC[C@H]4C(=O)O)ccc3C2=O)c1 | inactive: 2.17% |
| OCCOCCN1CCN(C(=S)Nc2ccccc2)CC1 | inactive: -12.4% |
| CCC(=O)Nc1ccc2c(c1)ncn2C | inactive: -8.57% |
| COc1cccc(Nc2cc(N3CCOCC3)c3nonc3c2[N+](=O)[O-])c1 | inactive: 2.01% |
| Cn1c(=O)c2[nH]c(COc3ccccc3)nc2n(C)c1=O | inconclusive: 29.9% |
| COc1cc(/C=C/C(O)=C/C(=O)/C=C/c2ccc(O)cc2)ccc1O | inconclusive: 171% |
| CC(=O)c1cccc(NC(=O)C23CC4CC(C2)CC(n2cncn2)(C4)C3)c1 | inactive: -0.64% |
| Oc1ccccc1O | inactive: 0.73% |
| CCN1CCN(Cc2c(O)ccc3c2O/C(=C\C=C\c2ccccc2)C3=O)CC1 | inconclusive: 101% |
| COc1ccc2nc(SCC(C)=O)c(C#N)cc2c1 | inconclusive: 50.7% |
| CN(C)c1ccc(/C=C2\NC(=S)N(Cc3ccccc3)C2=O)cc1 | inconclusive: 179% |
| CCCC1OC23CCCCC2C(C#N)(C#N)C1(C#N)C(=N)O3 (stereo not given) | inconclusive: 36.4% |
| Cc1ccc(C)c(S(=O)(=O)Nc2cc(SCC(=O)O)c(O)c3ccccc23)c1 | inconclusive: 95.7% |
| CC(C)c1ccc(N(C(=O)CNC(=O)c2ccco2)C(C(=O)NC2CCCC2)c2ccncc2)cc1 (stereo not given) | inconclusive: 40.5% |
| CC1CCCN(C(=O)CCNC(=O)Cn2cnc3ccccc3c2=O)C1 (stereo not given) | inactive: -2.67% |
| COc1ccc(CN2CC(=O)N3[C@H]4c5cc(C)ccc5OC[C@@H]4[C@H](c4ccccc4)[C@]3(C)C2=O)cc1 | inconclusive: 37.7% |
| COc1ccc(NC(=O)CSc2ccc3c4c(cccc24)C(=O)c2ccccc2-3)cc1 | inconclusive: 41.3% |
| CN(c1ccc(OCC(=O)N2CCC(C(N)=O)CC2)cc1)S(=O)(=O)c1cccs1 | inconclusive: 152% |

| Structure (SMILES) | inhibition |
| --- | --- |
| O=C1C(N2CCOCC2)=Cc2cccc3cccc1c23 | inconclusive: 88.6% |
| O=C1NCCCc2c1oc1cc(Br)c(O)c(Br)c21 | inconclusive: 30% |
| O=C(NCc1cccc(F)c1)c1cccc2c1C(=O)c1ccc(N3CCC(Cc4ccccc4)CC3)cc1S2(=O)=O | inconclusive: 182% |
| COc1ccc(C2C(C(=O)c3cccs3)=C(O)C(=O)N2c2nncs2)cc1 (stereo not given) | inconclusive: 32.5% |
| COc1ccc(N2CCN(C(=O)c3ccccc3)CC2)c([N+](=O)[O-])c1 | inactive: 0% |
| O=C1c2cccc3c(O)ccc(c23)C(=O)N1Cc1ccco1 | inconclusive: 138% |
| CCN1CCN(C2=CC3=CC(=C(C#N)C#N)CCC3CC2)CC1 (stereo not given) | inconclusive: 194% |
| COc1ccc(NC(=O)/C(C#N)=C\c2ccc(OCc3ccc(C(=O)O)cc3)c(OC)c2)cc1 | inactive: -8.98% |
| N#C/C(=C\c1ccc(N2CCOCC2)o1)c1nc2ccccc2[nH]1 | inconclusive: 178% |
| CCc1c(C)c2nncn2[nH]c1=O | inactive: -3.9% |
| CC(=O)N1C(=S)NC(=O)/C1=C1/C(=O)N(CC(=O)Nc2cccc(C)c2)c2ccccc21 | inactive: -2.91% |
| COC(=O)c1cc(NC(=O)c2ccccc2)c(=O)oc1/C=C/Nc1ccc(Oc2ccccc2)cc1 | inconclusive: 153% |
| CC(NC(=O)C12CC3CC(CC(C3)C1)C2)C(=O)N/N=C/C1=C(N2CCOCC2)C(=C\c2ccccc2)/CC1 (stereo not given) | inactive: -2.59% |
| CCCCCCCC(=O)N1c2ccccc2NC(=O)C1CC(=O)Nc1ccc(C(=O)O)cc1 (stereo not given) | inactive: 8.1% |
| COc1ccc(C2=CC(c3cccc(OC)c3)n3nnnc3N2)cc1 (stereo not given) | inconclusive: 67.2% |
| C/C(CCC(=O)O)=N/Nc1ccc([N+](=O)[O-])cc1[N+](=O)[O-] | inactive: -3.25% |
| O=c1cc(Cl)[nH]c(=O)n1Cc1ccc(F)cc1 | inactive: -9.54% |
| CCOC(=O)c1c(S(=O)(=O)N(C)C2CCCCC2)c(C)n(C)c1C | inactive: -7.99% |
| COc1cccc(-c2noc(CCC(=O)NCC3CCCO3)n2)c1 (stereo not given) | inactive: 1.45% |
| CC1CCCN(C(=O)c2nn(C)c3c2CS(=O)(=O)c2ccccc2-3)C1 (stereo not given) | inactive: -6.35% |
| CCN(CC)c1ccc(NC2CC(=O)N(CCc3ccc(OC)cc3)C2=O)cc1 (stereo not given) | inconclusive: 35.8% |
| CCN(CC)CCN1C(=O)c2cccc3cc(N)cc(c23)C1=O | inconclusive: 69.5% |
| COc1cc(O)c2c(c1)OC(C)(C)CC2=O | inactive: -2.94% |

| Structure (SMILES) | inhibition |
| --- | --- |
| O=C(NC(=S)Nc1ccccn1)c1ccc([N+](=O)[O-])cc1 | inconclusive: 152% |
| COC(=O)C1=C(C)NC(=O)/C1=C\c1cc(C)n(-c2ccccc2F)c1C | inactive: 5.5% |
| Cc1ccc(NC(=O)CC2SC3=NCCCN3C2=O)c(C)c1 (stereo not given) | inconclusive: 51% |
| COc1ncnc2c1NC1=C(S2)C(=NCCC(=O)O)CC(C)(C)C1 | inconclusive: 113% |
| Cc1ccc([C@@H]2CC=C(C(=O)O)[C@H](c3ccccc3)N2S(=O)(=O)c2ccccc2C)cc1 | inactive: 11.1% |
| O=c1c(/C=C(\O)c2ccc(F)cc2)nc2ccccc2n1-c1ccccc1 | inconclusive: 87.4% |
| O=S(=O)([N-]c1nc2ccccc2nc1-[n+]1ccc(Cc2ccccc2)cc1)c1ccc(Br)s1 | inconclusive: 47.2% |
| COc1cc2cc(CCCOC(=O)c3ccc(Br)cc3)oc(=O)c2cc1OC | inactive: 8.18% |
| CCOC(=O)c1[nH]nc2c1C(=O)N(Cc1ccccc1)C2=O | inactive: -0.68% |
| Cc1nc(NN)nc(NCc2ccccc2)n1 | inactive: -1.54% |
| COc1ccc(C)cc1NC(=O)NNC(=O)c1ccoc1C | inactive: 5.8% |
| Cc1ccc(NC(=O)c2sc3nc4c(c(-c5ccco5)c3c2N)CCC4)cc1 | inconclusive: 43.6% |
| COc1ccc(S(=O)(=O)c2c(C)c(NS(=O)(=O)c3ccccc3)cc(C)c2O)cc1 | inactive: -5.22% |
| O=C1CCN2C=Nc3cccc4ccc1c2c34 | inconclusive: 166% |
| COc1cc(C2C=C(c3cccs3)Nc3ncnn32)cc(OC)c1OC (stereo not given) | inconclusive: 151% |
| CCOc1[nH]c(/N=C/c2ccco2)c(C#N)c1C#N | inconclusive: 73.5% |
| O=C(NCc1ccco1)c1nc2c(nnn2Cc2ccccc2Cl)c(=O)[nH]1 | inactive: -1.35% |
| CN(C)c1ccc(Nc2c3c4c(cccc4n(C)c2=O)C(=O)c2ccccc2-3)cc1 | inconclusive: 37.8% |
| CNc1c2cccc(C)c2nc2c(C(=O)NCCN(C)C)cccc12 | inconclusive: 90% |
| O=C(C[n+]1ccc(C(=O)c2ccccc2)cc1)Nc1ccccc1OC(F)F | inactive: -15.9% |
| Cc1cccc(NC(=O)CN2C(=O)/C(=C3\SC(=S)N(CC4CCCO4)C3=O)c3ccccc32)c1 (stereo not given) | inactive: -5.35% |
| CCCCNc1c2c3c(cccc3n(C)c1=O)C(=O)c1ccccc1-2 | inconclusive: 139% |
| COc1ccc2cc(C(=O)Nc3ccc(Cl)cc3)sc(=O)c2c1OC | inconclusive: 32.5% |

| Structure (SMILES) | inhibition |
| --- | --- |
| CN1CCN(C2=C(NS(=O)(=O)c3ccccc3)C(=O)c3ccccc3C2=O)CC1 | inactive: 7.03% |
| CCCOC(=O)CSC1=C(C#N)C(c2ccccc2OC)C(C#N)C(=O)N1 (stereo not given) | inactive: -15.9% |
| O=c1oc2ccc(Cl)cc2nc1/C=C(\O)c1cccs1 | inconclusive: 104% |
| COc1cc(NC(C)CCCNC(C)C)c2ncccc2c1OC (stereo not given) | inconclusive: 37.5% |
| CN(C)c1ccc(N=Cc2nc(-c3ccccc3)oc2O)cc1 | inconclusive: 86.4% |
| COc1ccc(NS(=O)(=O)c2cc(NC(=O)c3ccc(Cl)cc3)ccc2N2CCOCC2)cc1 | inconclusive: 46.1% |
| C=CCn1c(=O)/c(=C\c2ccsc2)s/c1=C(/C#N)C(=O)NCCN1CCOCC1 | inconclusive: 69.2% |
| C=CCn1c(C)cc(-c2csc(NC)n2)c1C | inconclusive: 47.2% |
| CCOc1ccccc1C=NNc1ccc([N+](=O)[O-])cn1 | inactive: -10.8% |
| COCCCNCC(O)COc1cccc2[nH]c(C)cc12 (stereo not given) | inactive: 3.64% |
| Cc1ccc(N2CN(Cc3ccco3)CNC2=S)cc1 | inactive: -4.68% |
| COc1ccc2c(c1)c1nc3ccccc3nc1n2Cc1ccc(OC)c(OC)c1 | inconclusive: 46.4% |
| O=C1/C(=C\c2cccc(O)c2)SC(=S)N1Cc1ccccc1 | inactive: -14.8% |
| Cc1cc(C)c[n+](-c2[nH]c(=O)sc2/C=N/NC([S-])=Nc2ccccc2)c1 | inconclusive: 48.1% |
| CCOC(=O)N1CCN(C(=O)/C=C/c2ccc(OC)c(OC)c2)CC1 | inactive: -5.82% |
| CCCc1cc(=O)oc2cc(C)cc(OC(C)C(=O)NCc3cccnc3)c12 (stereo not given) | inactive: -9.54% |
| Cc1ccc2c(ccc[n+]2CC(=O)c2ccccc2)c1 | inactive: -3.89% |
| Cc1cc(N2CCCC2)c(F)cc1/C=C\[N+](=O)[O-] | inconclusive: 60.4% |
| O=c1c(O)c(-c2cccs2)oc2ccc(Cl)cc12 | inconclusive: 125% |
| Oc1c(Br)cc(Br)cc1/C=N/Nc1ccc(Cl)nn1 | inactive: 7.11% |
| CCSC1=N/C(=C\c2ccc3c(c2)OCO3)C(=O)S1 | inconclusive: 36.7% |
